Reference: patent US10954269B2, “Anti-inflammatory tripeptides” (Dr. August Wolff Gmbh & Co. KG Arzneimittel, priority 2013, dated 2021)
At least one peptide structure holds a part that was inferred or is arguable (an end, a ring closure or a residue). Some compounds share one wording; it may come from a single statement. Where a SMILES comes first, the peptide text is derived from it. [ ]: non-standard residue; d: D form. Tle = CC(C)(C)[C@H](N)C(=O)O

What was measured:
[1] = test system: human keratinocyte cell line (HaCaT); test: Cytokine secretion on protein level in activated human keratinocyte cell line HaCaT (13-plex FACS / Luminex, supernatant); assay type: cell-based; settings: for IL-12p70 cytokine concentration / IL-22 cytokine concentration: excluded from the final assessment
Method: (§1) Primary T-cells were isolated from peripheral blood from healthy volunteers and from secondary lymphatic organs from naïve C57BL/6 mice, respectively. The cells were stimulated with phorbol-12-myristate-13-acetate (PMA)/Ionomycin and interferon-gamma (IFN-γ), respectively, for 48 h to activate the cells. The activated cells release pro-inflammatory cytokines. In parallel a human (HaCaT) keratinocyte cell line was activated with PMA/Ionomycin and IFN-γ, respectively, too. […] At the same time release of anti-inflammatory IL-10 was inhibited. Two days after addition of PMA/Ionomycin and IFN-γ, respectively, the induction of IL-1 secretion was determined in the supernatant for proving that the cells are activated. […] The anti-inflammatory properties of the tripeptides were determined 48 h and 72 h following stimulation. A 13-plex-system based FACS analysis was used for showing the reduced secretion of pro-inflammatory cytokines in the supernatant. Data for IL-1, IL-2, IL-6, IL-12p70 IL-17, IFN-γ and TNF-α are considered to be most relevant. Thus, analysis of the anti-inflammatory properties of the tripeptides is preferably based on the results obtained for these analytes. […] Using this method the gene expression of pro-inflammatory markers like IL-6, IL-17, IFN-γ and TNF-α was determined.
In a third experiment murine and human T cells and HaCaT cells were stimulated with PMA/Ionomycin and treated with Examples 14, 15, 16 and 17 at 10^−7 M, 10^−9 M and 10^−11 M. Cytokine concentrations (IFN-γ, IL-17 and IL-10 for T cells and IFN-γ for HaCat) were assessed in the supernatants using the Luminex technology. Expression of genes coding for Il-1β, IL-6 and TNF-α was determined. […] Moreover, concentrations of pro-inflammatory cytokines IFN-γ and IL-17 was reduced in the supernatants whereas the concentration of anti-inflammatory cytokine IL-10 was increased. […]
For the biological assay two human cell lines of different origin were chosen to allow for translation of the results obtained. A HaCaT cell is a cell type belonging to an immortal human keratinocyte line used in scientific research. Its use in research allows for the characterization of human keratinocyte using a model that is reproducible and representing a human epithelial cell line. In contrast human T-lymphocytes (T-cells) are a type of lymphocyte (itself a type of white blood cell) that play a central role in cell-mediated inflammation/immunity.

[2] = test system: primary murine T-cells; test: Cytokine secretion on protein level in activated primary murine T-cells (13-plex FACS / Luminex, supernatant); assay type: cell-based, C57BL/6 mice
Method: as §1
In a third experiment murine and human T cells and HaCaT cells were stimulated with PMA/Ionomycin and treated with Examples 14, 15, 16 and 17 at 10^−7 M, 10^−9 M and 10^−11 M. Cytokine concentrations (IFN-γ, IL-17 and IL-10 for T cells and IFN-γ for HaCat) were assessed in the supernatants using the Luminex technology. Expression of genes coding for Il-1β, IL-6 and TNF-α was determined. […] Moreover, concentrations of pro-inflammatory cytokines IFN-γ and IL-17 was reduced in the supernatants whereas the concentration of anti-inflammatory cytokine IL-10 was increased.
The anti-inflammatory and immunomodulatory effects of selected examples of the present invention were compared with common immunosuppressants. Thus, cells activated with PMA/Ionomycin and IFN-γ, respectively, were stimulated with MMF or dexamethasone. Following stimulation the secretion of pro-inflammatory cytokines was analyzed on protein and gene level (Table 9 and FIGS. 4-6).

[3] = test system: human keratinocytes (HaCaT); test: Gene expression of pro-inflammatory cytokines (RT-qPCR) in human keratinocytes (HaCaT); assay type: cell-based
Text: Cells were activated with PMA/Ionomycin and treated with PBS, α-MSH, K(D)PT and Examples 3, 8 and 9, respectively, at a concentration of 10^−9 M. Values are normalized to β-actin and are shown relative to the gene expression in PBS-stimulated cells.
as §1
In a third experiment murine and human T cells and HaCaT cells were stimulated with PMA/Ionomycin and treated with Examples 14, 15, 16 and 17 at 10^−7 M, 10^−9 M and 10^−11 M. Cytokine concentrations (IFN-γ, IL-17 and IL-10 for T cells and IFN-γ for HaCat) were assessed in the supernatants using the Luminex technology. Expression of genes coding for Il-1β, IL-6 and TNF-α was determined. […]

[4] = HaCaT stimulated with PBS, 10^−9M
[5] = HaCaT stimulated with PMA/Ionomycin, 10^−9M
[6] = primary murine T-cells stimulated with IFN-γ, 10^−9M
[7] = primary murine T-cells stimulated with PBS, 10^−9M
[8] = primary murine T-cells stimulated with PMA/Ionomycin, 10^−9M
[9] = primary murine T-cells stimulated with PMA/Ionomycin, 10^−9M, 1:10 dilution of the supernatants

## CC(C)(C)[C@H](NC(=O)[C@@H]1CCCN1C(=O)[C@@H](N)CCCCN)C(=O)O [Example 9, H-(L)-Lys-(L)-Pro-(L)-t-butyl-Gly-OH] (H-Lys-Pro-[Tle]-OH)
[1]; [4]
  IL-13 cytokine concentration: 56.83 pg/mL
  IL-17 cytokine concentration: 605.66 pg/mL
  TNF-α cytokine concentration: 91.82 pg/mL
  IL-12p70 cytokine concentration: 1914.52 pg/mL
  IL-22 cytokine concentration: 15532.1 pg/mL
[1]; [5]
  IFN-γ cytokine concentration: 738.89 pg/mL
  IL-1 cytokine concentration: 208.59 pg/mL
  IL-2 cytokine concentration: 113.83 pg/mL
  IL-4 cytokine concentration: 57.66 pg/mL
  IL-5 cytokine concentration: 162.04 pg/mL
  IL-6 cytokine concentration: 131.98 pg/mL
  IL-9 cytokine concentration: 129.3 pg/mL
  IL-10 cytokine concentration: 153.24 pg/mL
  IL-13 cytokine concentration: 65.15 pg/mL
  IL-17 cytokine concentration: 446.55 pg/mL
  TNF-α cytokine concentration: 89.8 pg/mL
  IL-12p70 cytokine concentration: 0 pg/mL
  IL-22 cytokine concentration: 17795 pg/mL
[1]; activated human keratinocytes
  secretion / expression of pro-inflammatory cytokines (supernatant): stronger anti-inflammatory effects
[1]; keratinocytes
  secretion of anti-inflammatory cytokine IL-10: induction
[2]; activated primary murine T-cells
  secretion / expression of pro-inflammatory cytokines (supernatant): stronger anti-inflammatory effects
[2]; [6]
  IL-1 cytokine concentration: 73.28 pg/mL
  IL-2 cytokine concentration: 0 pg/mL
  IL-4 cytokine concentration: 0 pg/mL
  IL-5 cytokine concentration: 0 pg/mL
  IL-6 cytokine concentration: 16.44 pg/mL
  IL-10 cytokine concentration: 0 pg/mL
  IL-13 cytokine concentration: 0 pg/mL
  IL-17 cytokine concentration: 0 pg/mL
  IL-21 cytokine concentration: 0 pg/mL
  IL-22 cytokine concentration: 0 pg/mL
  IL-27 cytokine concentration: 99.7 pg/mL
[2]; [7]
  IFN-γ cytokine concentration: 0 pg/mL
  IL-1 cytokine concentration: 0 pg/mL
  IL-2 cytokine concentration: 0 pg/mL
  IL-4 cytokine concentration: 0 pg/mL
  IL-5 cytokine concentration: 10.13 pg/mL
  IL-6 cytokine concentration: 14.65 pg/mL
  IL-10 cytokine concentration: 0 pg/mL
  IL-13 cytokine concentration: 0 pg/mL
  IL-17 cytokine concentration: 0 pg/mL
  IL-21 cytokine concentration: 0 pg/mL
  IL-22 cytokine concentration: 0 pg/mL
  IL-27 cytokine concentration: 727.44 pg/mL
  TNF-α cytokine concentration: 0 pg/mL
[2]; [8]
  IL-1 cytokine concentration: 0 pg/mL
  IL-4 cytokine concentration: 120.33 pg/mL
  IL-5 cytokine concentration: 281.76 pg/mL
  IL-6 cytokine concentration: 276.29 pg/mL
  IL-10 cytokine concentration: 332.03 pg/mL
  IL-13 cytokine concentration: 6704.42 pg/mL
  IL-17 cytokine concentration: 547.87 pg/mL
  IL-21 cytokine concentration: 0 pg/mL
  IL-22 cytokine concentration: 571.55 pg/mL
  IL-27 cytokine concentration: 368.78 pg/mL
  TNF-α cytokine concentration: 590.89 pg/mL
[2]; [9]
  IFN-γ* cytokine concentration: 4197.73 pg/mL
  IL-2* cytokine concentration: 1958.61 pg/mL
[3]
  gene expression of pro-inflammatory cytokines: reduction
